Experimental data taken from patent US7592316B2, “Peptides as NS3-serine protease inhibitors of hepatitis C virus” (Schering Corporation, priority 2000, dated 2009).

target: HCV NS3/NS4A protease (strain 1a) (Hepatitis C virus genotype 1a, UniProt P27958); test: biochemical; settings: Compounds prepared by Solid Phase Synthesis, Table 3; read-out: Ki* CLASS

Compound	Ki
CCCC(NC(=O)C1Cc2ccccc2CN1C(=O)C(NC(=O)OCC(C)C)C1CCCCC1)C(=O)C(=O)NCC(=O)NC(C(N)=O)c1ccccc1 (centres unmarked) (Isobutyloxycarbonyl-[Chg][Tic][X2]G[Phg]-NH2; configuration not given here)	0.101 to 1 µM
CCCC(NC(=O)[C@@H]1C[C@@H](OCc2ccccc2)CN1C(=O)[C@H](CCCNC(C)=O)NC(=O)OCC(C)C)C(=O)C(=O)NCC(=O)N[C@H](C(N)=O)c1ccccc1 (some centres unmarked) (Isobutyloxycarbonyl-[Orn](Ac)[Hyp](Bn)[X2]G[Phg]-NH2)	> 1 µM
CCCC(NC(=O)[C@@H]1C[C@@H](OCc2ccccc2)CN1C(=O)[C@H](CCCNC(=O)c1cccc(C(=O)O)c1)NC(=O)OCC(C)C)C(=O)C(=O)NCC(=O)N[C@H](C(N)=O)c1ccccc1 (some centres unmarked) (Isobutyloxycarbonyl-[Orn](Benzoyl(3-COOH))[Hyp](Bn)[X2]G[Phg]-NH2)	0.101 to 1 µM
CCCC(NC(=O)[C@@H]1C[C@@H](OCc2ccccc2)CN1C(=O)[C@H](CCCNC(=O)c1ccc(C(=O)O)cc1)NC(=O)OCC(C)C)C(=O)C(=O)NCC(=O)N[C@H](C(N)=O)c1ccccc1 (some centres unmarked) (Isobutyloxycarbonyl-[Orn](Benzoyl(4-COOH))[Hyp](Bn)[X2]G[Phg]-NH2)	0.101 to 1 µM
CCCC(NC(=O)[C@@H]1C[C@@H](OCc2ccccc2)CN1C(=O)[C@H](CCCNC(=O)c1ccccc1)NC(=O)OCC(C)C)C(=O)C(=O)NCC(=O)N[C@H](C(N)=O)c1ccccc1 (some centres unmarked) (Isobutyloxycarbonyl-[Orn](Bz)[Hyp](Bn)[X2]G[Phg]-NH2)	> 1 µM
CCCC(NC(=O)[C@@H]1C[C@@H](OCc2ccccc2)CN1C(=O)[C@H](CCCNC(=O)C1CCCCC1)NC(=O)OCC(C)C)C(=O)C(=O)NCC(=O)N[C@H](C(N)=O)c1ccccc1 (some centres unmarked) (Isobutyloxycarbonyl-[Orn](Cyclohexanecarbonyl)[Hyp](Bn)[X2]G[Phg]-NH2)	> 1 µM
CCCC(NC(=O)[C@@H]1C[C@@H](OCc2ccccc2)CN1C(=O)[C@H](CCCNC(=O)CCC(=O)OC)NC(=O)OCC(C)C)C(=O)C(=O)NCC(=O)N[C@H](C(N)=O)c1ccccc1 (some centres unmarked) (Isobutyloxycarbonyl-[Orn](MeOSuc)[Hyp](Bn)[X2]G[Phg]-NH2)	> 1 µM
CCCC(NC(=O)[C@@H]1C[C@@H](OCc2ccccc2)CN1C(=O)[C@H](CCCNC(=O)Cc1ccccc1)NC(=O)OCC(C)C)C(=O)C(=O)NCC(=O)N[C@H](C(N)=O)c1ccccc1 (some centres unmarked) (Isobutyloxycarbonyl-[Orn](PhAc)[Hyp](Bn)[X2]G[Phg]-NH2)	> 1 µM
CCCC(NC(=O)[C@@H]1C[C@@H](OCc2ccccc2)CN1C(=O)[C@H](CCCNC(=O)CCC(=O)O)NC(=O)OCC(C)C)C(=O)C(=O)NCC(=O)N[C@H](C(N)=O)c1ccccc1 (some centres unmarked) (Isobutyloxycarbonyl-[Orn](Suc)[Hyp](Bn)[X2]G[Phg]-NH2)	> 1 µM
CCCC(NC(=O)[C@@H]1C[C@@H](OCc2ccccc2)CN1C(=O)[C@H](CCCNC(=O)c1c(F)c(F)c(F)c(F)c1C(=O)O)NC(=O)OCC(C)C)C(=O)C(=O)NCC(=O)N[C@H](C(N)=O)c1ccccc1 (some centres unmarked) (Isobutyloxycarbonyl-[Orn](X25)[Hyp](Bn)[X2]G[Phg]-NH2)	> 1 µM
CCCC(NC(=O)[C@@H]1C[C@@H](OCc2ccccc2)CN1C(=O)[C@H](CCCNC(=O)C1(C(=O)O)CC1)NC(=O)OCC(C)C)C(=O)C(=O)NCC(=O)N[C@H](C(N)=O)c1ccccc1 (some centres unmarked) (Isobutyloxycarbonyl-[Orn](X39)[Hyp](Bn)[X2]G[Phg]-NH2)	> 1 µM
CCCC(NC(=O)[C@@H]1C[C@@H](OCc2ccccc2)CN1C(=O)[C@H](CCCNC(=O)C1CCC(C(=O)O)CC1)NC(=O)OCC(C)C)C(=O)C(=O)NCC(=O)N[C@H](C(N)=O)c1ccccc1 (some centres unmarked) (Isobutyloxycarbonyl-[Orn](X51)[Hyp](Bn)[X2]G[Phg]-NH2)	> 1 µM
CCCC(NC(=O)[C@@H]1C[C@@H](OCc2ccccc2)CN1C(=O)[C@H](CCCNC(=O)C1CCCC[C@H]1C(=O)O)NC(=O)OCC(C)C)C(=O)C(=O)NCC(=O)N[C@H](C(N)=O)c1ccccc1 (some centres unmarked) (Isobutyloxycarbonyl-[Orn](X61)[Hyp](Bn)[X2]G[Phg]-NH2)	> 1 µM
CCCC(NC(=O)[C@@H]1C[C@@H](OC(C)(C)C)CN1C(=O)[C@@H](NC(=O)OCC(C)C)C(C)(C)C)C(=O)C(=O)NCC(=O)N[C@H](C(N)=O)c1ccccc1 (some centres unmarked) (Isobutyloxycarbonyl-[Tle][Hyp](tBu)[X2]G[Phg]-NH2)	0.101 to 1 µM
CCCCC(NC(=O)[C@@H]1C[C@@H](OC(C)(C)C)CN1C(=O)[C@@H](NC(=O)OCC(C)C)C(C)(C)C)C(=O)C(=O)NCC(=O)N[C@H](C(N)=O)c1ccccc1 (some centres unmarked) (Isobutyloxycarbonyl-[Tle][Hyp](tBu)[X4]G[Phg]-NH2)	0.101 to 1 µM
CCCCC(NC(=O)CNC(=O)C(=O)C(CCC)NC(=O)[C@@H]1C[C@@H](OCc2ccc(Cl)c(Cl)c2)CN1C(=O)C(NC(=O)OCC(C)C)C1CCCCC1)C(N)=O (some centres unmarked) (Isobutyloxycarbonyl-[ξChg][Hyp](Benzyl(3,4-Cl2))[X2]G[ξNle]-NH2)	0.101 to 1 µM
CCCC(NC(=O)[C@@H]1C[C@@H](OCc2ccc(Cl)c(Cl)c2)CN1C(=O)C(NC(=O)OCC(C)C)C1CCCCC1)C(=O)C(=O)NCC(=O)NC(C(N)=O)c1ccccc1 (some centres unmarked) (Isobutyloxycarbonyl-[ξChg][Hyp](Benzyl(3,4-Cl2))[X2]G[ξPhg]-NH2)	0.001 to 0.1 µM

*1 amine or outer side, *2 acyl side, *3 side chain or, on linkers, in order; H or OH if unused. Where a SMILES comes first, the peptide text is derived from it. [ ]: non-standard residue; d: D form. The star is where a group is joined. ξ: configuration not given here. Benzoyl(3-COOH) = O=C(O)c1cccc(C(=O)*)c1; Benzoyl(4-COOH) = O=C(O)c1ccc(C(=O)*)cc1; X25 = O=C(O)c1c(F)c(F)c(F)c(F)c1C(=O)*; Cyclohexanecarbonyl = O=C(C1CCCCC1)*; Isobutyloxycarbonyl = CC(C)COC(=O)*; Benzyl(3,4-Cl2) = Clc1ccc(C*)cc1Cl; X4 = CCCCC(N[*:1])C(=O)C(=O)[*:2]; Hyp = O=C(O)[C@@H]1C[C@@H](O)CN1; X2 = CCCC(N[*:1])C(=O)C(=O)[*:2]; X61 = O=C(O)[C@@H]1CCCCC1C(=O)*; Tic = O=C(O)[CH]1Cc2ccccc2CN1; Phg = N[CH](C(=O)O)c1ccccc1; Suc = O=C(CCC(=O)[*:2])[*:1]; Tle = CC(C)(C)[C@H](N)C(=O)O; X51 = O=C(O)C1CCC(C(=O)*)CC1; Chg = N[CH](C(=O)O)C1CCCCC1; X39 = O=C(O)C1(C(=O)*)CC1; ξChg = NC(C(=O)O)C1CCCCC1; ξPhg = NC(C(=O)O)c1ccccc1; MeOSuc = COC(=O)CCC(=O)*; Orn = NCCC[C@H](N)C(=O)O; PhAc = O=C(Cc1ccccc1)*; ξNle = CCCCC(N)C(=O)O; Bz = O=C(c1ccccc1)*; Bn = c1ccc(C*)cc1; tBu = CC(C)(C)*
